Article PMC4336329 (PLoS ONE, 2015)
About 2,200 (0.71%) of roughly 310,000 compounds showed an effect of 50% or more. The effect is printed as a negative number. This is one part of the list.

target: human ether-à-go-go-related gene (hERG) potassium channel (human, UniProt Q12809); assay: primary screen, population patch clamp on CHO cells stably expressing hERG
Sequence (Q12809 whole entry, looked up): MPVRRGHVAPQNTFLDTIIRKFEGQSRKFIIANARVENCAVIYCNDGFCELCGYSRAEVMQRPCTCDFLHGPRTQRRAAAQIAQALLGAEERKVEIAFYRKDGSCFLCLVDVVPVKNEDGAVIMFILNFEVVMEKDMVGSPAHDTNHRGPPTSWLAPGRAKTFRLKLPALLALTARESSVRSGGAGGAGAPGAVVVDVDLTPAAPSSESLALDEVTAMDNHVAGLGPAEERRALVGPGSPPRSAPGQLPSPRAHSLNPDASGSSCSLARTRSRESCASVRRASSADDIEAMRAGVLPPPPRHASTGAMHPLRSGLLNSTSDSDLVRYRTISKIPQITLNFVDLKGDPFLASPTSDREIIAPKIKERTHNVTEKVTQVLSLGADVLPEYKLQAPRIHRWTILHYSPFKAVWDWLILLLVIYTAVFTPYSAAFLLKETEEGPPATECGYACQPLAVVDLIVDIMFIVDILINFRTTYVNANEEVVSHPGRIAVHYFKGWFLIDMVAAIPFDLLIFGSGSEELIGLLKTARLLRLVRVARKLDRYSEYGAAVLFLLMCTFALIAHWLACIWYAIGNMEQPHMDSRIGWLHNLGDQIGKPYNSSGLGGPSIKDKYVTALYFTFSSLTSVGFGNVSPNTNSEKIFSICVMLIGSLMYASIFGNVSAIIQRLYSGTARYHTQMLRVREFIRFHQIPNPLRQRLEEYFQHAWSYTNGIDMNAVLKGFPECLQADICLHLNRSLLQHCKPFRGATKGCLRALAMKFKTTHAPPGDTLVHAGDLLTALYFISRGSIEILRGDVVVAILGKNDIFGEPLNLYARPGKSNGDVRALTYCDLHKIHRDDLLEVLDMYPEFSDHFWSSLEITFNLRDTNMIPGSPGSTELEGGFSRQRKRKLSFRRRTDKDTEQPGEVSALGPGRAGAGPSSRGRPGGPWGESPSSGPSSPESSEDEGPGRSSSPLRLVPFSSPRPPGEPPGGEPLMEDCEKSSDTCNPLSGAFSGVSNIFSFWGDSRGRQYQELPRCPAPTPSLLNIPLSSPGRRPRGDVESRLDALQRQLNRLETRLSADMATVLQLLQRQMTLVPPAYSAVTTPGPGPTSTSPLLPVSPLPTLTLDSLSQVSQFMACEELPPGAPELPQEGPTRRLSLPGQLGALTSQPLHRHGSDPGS

Compound | hERG current change (%, negative = inhibition) at 1uM [%]
Cc1onc(NC(=O)NC(=O)c2c(F)cccc2Cl)c1Br | 10.4
CCC(=O)NCCNc1nc2cc(C)c(C)cc2cc1C#N | 8.58
CCOc1ccccc1C(=O)Nc1ccccc1C(N)=O | 0.927
CC(=O)N(c1cccc(Br)c1)C1C=CS(=O)(=O)C1 (centres unmarked) | 10.1
COC(=O)c1cccc(-n2c(C)cc(C=O)c2C)c1 | 5.95
COc1cccc(C(=O)NCC(=O)NNc2ncnc(N)c2[N+](=O)[O-])c1 | 12.8
CCOC(=O)c1sc2ncn(CC(=O)Nc3cc(C)on3)c(=O)c2c1C | 13
CN(C)CCCN(Cc1ccc2c(c1)OCO2)C(=O)NC1CCCCC1 | -1.49
CCOC(=O)C(C)Oc1ccsc1C(=O)OC (centres unmarked) | 8.71
COC(=O)c1ccc(/C=N/NC(=O)CC(=O)NCC(C)C)cc1 | 18.3
CN1/C(=C\C(=O)c2cccnc2)C(C)(C)c2ccccc21 | -1.35
CNC(C(=O)c1ccccc1)C(OC)c1cccc([N+](=O)[O-])c1.[O-][Cl+3]([O-])([O-])O (centres unmarked) | 11
Cc1cc(Nc2c(C)n(C)n(-c3ccccc3)c2=O)c2ccccc2n1 | 1.83
Cc1ccc(C)c(S(=O)(=O)Nc2cc3c4c(c2)CCC(=O)N4CCC3)c1 | 11.5
CCOC(=O)C1CCN(C/C=C/c2ccccc2)CC1 | 4.64
COc1cc2c(cc1NC(=O)C(C)N1CCN(S(=O)(=O)c3ccc(C)c(C)c3)CC1)oc1ccccc12 (centres unmarked) | 20.5
Cc1ccc(C2C(C#N)=C(N)Oc3cc4c(cc32)OCO4)cc1 (centres unmarked) | 11.4
COC(=O)C1=C(c2ccc(-c3ccccc3)c(F)c2)C[C@@H]2CC[C@H]1N2C(=O)NCc1ccc(F)cc1 | 15.5
O=C1/C(=C/c2ccccn2)SC(=S)N1NS(=O)(=O)c1ccccc1 | 4.71
COc1ccccc1NC(=O)C1=C(C)Nc2nc(-c3ccc(N(C)C)cc3)nn2C1c1ccncc1 (centres unmarked) | -4.17
CCCC(=O)NC(=S)Nc1ccccc1OC | 7.87
CCCCOc1ccc(Cl)cc1Nc1nc(NCCO)nc(N2CCCC2)n1 | 9.02
CCn1cc(C(=O)N2CCN(c3ccccc3)CC2)c(=O)c2cc(S(=O)(=O)N3CCOCC3)ccc21 | 21.2

Compound | hERG current change (%, negative = inhibition) at 1uM [%]
CC(c1ccccc1)C1CC(=O)N(c2ccc(C(=O)O)cc2)C1=O (centres unmarked) | 15.7
CCN(C(=O)c1ccc2c(SCC(=O)O)c3c(nc2c1)CCC3)c1cc(Cl)ccc1OC | 7.27
CCc1ccccc1NCc1cc(=O)oc2cc(C)ccc12 | 17.5
Cc1nc(SCC(=O)NNC(=O)c2cccs2)[nH]c(=O)c1C | 8.36
COC(=O)CCNS(=O)(=O)c1ccc2nsnc2c1 | 2.08
CC(C)c1ccccc1NC(=O)COC(=O)COc1ccccc1[N+](=O)[O-] | 13.6
CC(C)CC(c1nnnn1C1CCCC1)N1CCN(C(=O)c2ccco2)CC1.Cl (centres unmarked) | -6.57
CNc1ccc(Cl)cc1C(N)=O | 26.5
CC(=O)c1ccc(NC(=O)c2cc(C)nc3ccccc23)cc1 | 13.5
COc1ccc(NC(=O)c2ccccc2NC(=O)CSc2ccc(Cl)cc2)cc1 | -1.47
O=C(COC(=O)c1cccc(Br)c1)NCCC1=CCCCC1 | 12.7
Cc1nc(SCc2ccc(F)cc2)c2oc3ccccc3c2n1 | 11.8
COC(=O)c1nnn(-c2ccsc2C(=O)OC)c1C(=O)OC | 0.538
COc1ccc(C(=O)CC(=O)C(=O)Nc2cc(OC)ccc2OC)cc1 | 4.24
Cc1ccc(/C=C/c2nc3sc(C(=O)O)c(C)c3c(=O)[nH]2)cc1[N+](=O)[O-] | 19.5
COc1cc2nc(SCc3ccc(F)cc3)n(Cc3cccs3)c(=N)c2cc1OC | 0.591
O=C(Nc1ccc(Cc2ccncc2)cc1)c1cccc([N+](=O)[O-])c1 | 6.84
O=C(NCCc1ccc2c(c1)OCCO2)c1ccccn1 | 11.4
CC(=O)Nc1ccc(NC(=O)C(OC(=O)c2ccccc2)C(OC(=O)c2ccccc2)C(=O)O)cc1 (centres unmarked) | 13.7
CC(=O)c1cccc(NC(=O)C(C)OC(=O)c2cccc(S(=O)(=O)N3CCN(C)CC3)c2)c1 (centres unmarked) | -5.66
O=C(NNc1cc(Cl)ccc1Cl)c1cccnc1Cl | 17.5
CCOC(=O)CCCN1CC(O)=C(c2nc3ccccc3s2)C1=N | 12.2
COc1ccccc1-c1sc2ccccc2c1-c1ccc2c(c1)OCO2 | 13.9

Compound | hERG current change (%, negative = inhibition) at 1uM [%]
Cc1cccc(C)c1NC(=S)NCCc1ccccn1 | 14
COc1cc(OC)nc(NC(=O)CN2CCN(c3ccc(F)cc3)CC2)n1 | -8.52
COc1ccccc1NC(=O)C1=C(C)Nc2nc(-c3cccs3)nn2C1c1cccnc1 (centres unmarked) | 3.14
S=C(NCc1ccccc1)Nc1ccncc1 | 5.25
CCN(c1ccc(OC)cc1)S(=O)(=O)c1ccc2c(c1)CCN2C(=O)CCC(=O)O | 10.6
Cc1cc(C)cc(NC(=O)C(NCC2CCCO2)c2ccccc2)c1.O=C(O)C(=O)O (centres unmarked) | 12.3
COc1ccc2[nH]c(=O)c(CNc3ccccc3C)cc2c1 | 9.37
COc1ccc2c(c1)c(C(=O)N/N=C/c1ccc(OC)c(OC)c1)c(C)n2C | -2.8
Cc1nnc(NC(=O)CSc2ncn(-c3ccccc3)n2)s1 | 9.65
Cl.Cn1sccc1=O | 16
CCCCCc1nnc(NC(=O)OCCC)s1 | -10.6
CCOC(=O)c1cnc(SCC(=O)Nc2sc(C)c(C)c2C#N)nc1N | 17.2
Nc1cc([N+](=O)[O-])ccc1Nc1ccccc1 | 2.49
O=C(COc1ccccc1)Nn1cnc2ccccc21 | 3.85
COc1ccccc1N1CCN(S(=O)(=O)c2cc3c(cc2C)NC(=O)CO3)CC1 | 2.65
CC(=O)Nc1ccc(S(=O)(=O)N2CCSC2c2ccccc2)cc1 (centres unmarked) | 18.2
COCC(C)NCc1ccc(OC)c(Br)c1.O=C(O)C(=O)O (centres unmarked) | 11
CCOC(=O)c1[nH]c(C)c(CN(CCc2ccccc2)S(C)(=O)=O)c1C | 4.5
Cc1noc(C)c1CSCC(=O)N(C)CC(=O)Nc1ccc(Cl)cc1 | 6.74
Cc1nn(S(=O)(=O)c2cccs2)c(C)c1Sc1ccc([N+](=O)[O-])cc1 | 12.1
Cc1sc2c3ccsc3ccc2[n+]1C.[I-] | 18
CCc1ccccc1NC(=O)C1c2ccccc2Oc2ccccc21 | 11.8
COC(=O)c1cc(OC)c(OC)cc1NC(=O)Cc1ccccc1[N+](=O)[O-] | 2.29

Compound | hERG current change (%, negative = inhibition) at 1uM [%]
Cc1cccc(NC(=O)CSc2ncnc3nc[nH]c23)c1C | -1.67
CC(=O)NCCn1c(SCc2ccc(C)cc2)nc2ccccc2c1=O | -3.02
CC1CCCN(C(=O)COC(=O)CNC(=O)c2ccc(Br)cc2)C1 (centres unmarked) | 5.36
COc1ccc(-c2ccc(S(=O)(=O)N3CCCC3)cc2)cc1 | 12.2
NS(=O)(=O)c1ccc(NC(=S)NNC(=O)c2ccc(Br)o2)cc1 | 14.1
CC1=C(C(=O)Nc2ccccn2)C(c2ccc(Br)cc2)NC(=S)N1 (centres unmarked) | 8.66
COc1cccc(NC(=O)CSc2nnc(Cn3c(=O)sc4ccccc43)n2C)c1 | 6.44
Cc1ccc(N=Cc2c(O)n(-c3ccc(C)cc3)c(=O)[nH]c2=O)cc1 | 12.2
COC(=O)Nc1ccc(OCC(=O)N2CCOCC2)cc1 | -3.91
CC(=O)O/N=C(/c1nonc1N)N(C)C | 8.58
CC(CCc1ccccc1)NCC(O)c1ccc(O)c(C(N)=O)c1.Cl (centres unmarked) | -6.91
Nc1ccc(C(=O)OCC(=O)N2CCc3ccccc3C2)cc1[N+](=O)[O-] | 13.9
CN1CCN(c2ccccc2NC(=O)COc2ccc(Br)cc2)CC1 | -20.3
CCCCN(C(=O)c1ccc(N(C)S(=O)(=O)c2ccc(C)cc2)cc1)c1c(N)n(CCC)c(=O)[nH]c1=O | 17.9
O=C1CC(c2cccc(Br)c2)C2=C(CCCC2=O)N1 (centres unmarked) | 12.7
CN1C2CCC1CC(NS(=O)(=O)c1ccc(C#N)cc1)C2 (centres unmarked) | 4.41
O=C(CN1CCN(C(=S)NC2CCCC2)CC1)Nc1ccc(Oc2ccccc2)cc1 | -3.39
CCn1c(SCC(=O)Nc2oc(-c3ccccc3)c(-c3ccccc3)c2C#N)nnc1-c1ccco1 | 13.2
CCOC(=O)C1=C(C)NC(=O)NC1/C(C)=C/c1ccccc1 (centres unmarked) | -7.48
COc1ccc(-c2ccc(/C=C3/C(=N)N4C=CSC4=NC3=O)o2)c([N+](=O)[O-])c1 | 6.71
